# Test results from the supplement of paper PMC8728848.
# The other results are listed elsewhere or left out.
# Experiments:
# Assay in all cases: glycan array binding signal (z-score within array); higher = stronger binding
# Conditions in all cases: glycan notation: IUPAC condensed, linker removed
# [1] = target: Neu5Ac(a2-3)Gal(b1-4)GlcNAc(b1-2)[Neu5Ac(a2-3)Gal(b1-4)GlcNAc(b1-4)]Man(a1-3)[GlcNAc(b1-4)][Neu5Ac(a2-3)Gal(b1-4)GlcNAc(b1-2)[Neu5Ac(a2-3)Gal(b1-4)GlcNAc(b1-6)]Man(a1-6)]Man(b1-4)GlcNAc(b1-4)GlcNAc
# Method in brief: (§1)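 Glycan array binding is given as a within-array Z-score, which can be read as non-binding when negative. The arrays, 3228 of them, came from the Consortium for Functional Glycomics database and were retained only where the protein sequence was available. Z-scores were averaged across arrays of the same protein sequence at different concentrations or buffers and across linkers.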
# [2] = target: Neu5Ac(a2-3)Gal(b1-4)GlcNAc(b1-2)[Neu5Ac(a2-3)Gal(b1-4)GlcNAc(b1-4)]Man(a1-3)[GlcNAc(b1-4)][Neu5Ac(a2-3)Gal(b1-4)GlcNAc(b1-4)Man(a1-6)]Man(b1-4)GlcNAc(b1-4)GlcNAc
# Method in brief: as §1
# [3] = target: Neu5Ac(a2-3)Gal(b1-4)GlcNAc(b1-2)[Neu5Ac(a2-3)Gal(b1-4)GlcNAc(b1-6)]Man(a1-6)[Neu5Ac(a2-3)Gal(b1-4)GlcNAc(b1-2)Man(a1-3)][GlcNAc(b1-4)]Man(b1-4)GlcNAc(b1-4)GlcNAc
# Method in brief: as §1
# [4] = target: Neu5Ac(a2-3)Gal(b1-4)GlcNAc(b1-3)Gal
# Method in brief: as §1
# [5] = target: Neu5Ac(a2-3)Gal(b1-4)GlcNAc(b1-3)Gal(b1-3)GlcNAc
# Method in brief: as §1
# [6] = target: Neu5Ac(a2-3)Gal(b1-4)GlcNAc(b1-3)Gal(b1-4)GlcNAc
# Method in brief: as §1
# [7] = target: Neu5Ac(a2-3)Gal(b1-4)GlcNAc(b1-3)Gal(b1-4)GlcNAc(b1-2)Man(a1-3)[Neu5Ac(a2-3)Gal(b1-4)GlcNAc(b1-3)Gal(b1-4)GlcNAc(b1-2)Man(a1-6)]Man(b1-4)GlcNAc(b1-4)GlcNAc
# Method in brief: as §1
# [8] = target: Neu5Ac(a2-3)Gal(b1-4)GlcNAc(b1-3)Gal(b1-4)GlcNAc(b1-3)Gal(b1-4)GlcNAc
# Method in brief: as §1
# [9] = target: Neu5Ac(a2-3)Gal(b1-4)GlcNAc(b1-3)Gal(b1-4)GlcNAc(b1-3)Gal(b1-4)GlcNAc(b1-2)Man(a1-3)[Neu5Ac(a2-3)Gal(b1-4)GlcNAc(b1-3)Gal(b1-4)GlcNAc(b1-3)Gal(b1-4)GlcNAc(b1-2)Man(a1-6)]GalNAc
# Method in brief: as §1
# [10] = target: Neu5Ac(a2-3)Gal(b1-4)GlcNAc(b1-3)Gal(b1-4)GlcNAc(b1-3)GalNAc
# Method in brief: as §1
# [11] = target: Neu5Ac(a2-3)Gal(b1-4)GlcNAc(b1-3)Gal(b1-4)GlcNAc(b1-3)[Neu5Ac(a2-3)Gal(b1-4)GlcNAc(b1-3)Gal(b1-4)GlcNAc(b1-6)]GalNAc
# Method in brief: as §1
# [12] = target: Neu5Ac(a2-3)Gal(b1-4)GlcNAc(b1-3)Gal(b1-4)GlcNAc(b1-6)[Gal(b1-3)]GalNAc
# Method in brief: as §1
# [13] = target: Neu5Ac(a2-3)Gal(b1-4)GlcNAc(b1-3)Gal(b1-4)[Fuc(a1-3)]GlcNAc
# Method in brief: as §1
# [14] = target: Neu5Ac(a2-3)Gal(b1-4)GlcNAc(b1-3)GalNAc
# Method in brief: as §1
# [15] = target: Neu5Ac(a2-3)Gal(b1-4)GlcNAc(b1-3)[Neu5Ac(a2-3)Gal(b1-4)GlcNAc(b1-6)]GalNAc
# Method in brief: as §1
# [16] = target: Neu5Ac(a2-3)Gal(b1-4)GlcNAc(b1-6)GalNAc
# Method in brief: as §1
# [17] = target: Neu5Ac(a2-3)Gal(b1-4)GlcNAc(b1-6)[Gal(b1-3)]GalNAc
# Method in brief: as §1
# [18] = target: Neu5Ac(a2-3)Gal(b1-4)GlcNAc(b1-6)[Neu5Ac(a2-3)Gal(b1-3)]GalNAc
# Method in brief: as §1
# [19] = target: Neu5Ac(a2-3)Gal(b1-4)GlcNAc6S
# Method in brief: as §1
# [20] = target: Neu5Ac(a2-3)Gal(b1-4)[Fuc(a1-3)]GlcNAc
# Method in brief: as §1
# [21] = target: Neu5Ac(a2-3)Gal(b1-4)[Fuc(a1-3)]GlcNAc(b1-2)Man
# Method in brief: as §1
# [22] = target: Neu5Ac(a2-3)Gal(b1-4)[Fuc(a1-3)]GlcNAc(b1-3)Gal
# Method in brief: as §1
# [23] = target: Neu5Ac(a2-3)Gal(b1-4)[Fuc(a1-3)]GlcNAc(b1-3)Gal(b1-4)GlcNAc
# Method in brief: as §1
# [24] = target: Neu5Ac(a2-3)Gal(b1-4)[Fuc(a1-3)]GlcNAc(b1-3)Gal(b1-4)[Fuc(a1-3)]GlcNAc(b1-3)Gal(b1-4)[Fuc(a1-3)]GlcNAc
# Method in brief: as §1
# [25] = target: Neu5Ac(a2-3)Gal(b1-4)[Fuc(a1-3)]GlcNAc(b1-3)GalNAc
# Method in brief: as §1
# [26] = target: Neu5Ac(a2-3)Gal(b1-4)[Fuc(a1-3)]GlcNAc(b1-6)[Gal(b1-3)]GalNAc
# Method in brief: as §1
# [27] = target: Neu5Ac(a2-3)Gal(b1-4)[Fuc(a1-3)]GlcNAc(b1-6)[Neu5Ac(a2-3)Gal(b1-3)]GalNAc
# Method in brief: as §1
# [28] = target: Neu5Ac(a2-3)Gal(b1-4)[Fuc(a1-3)]GlcNAc6S
# Method in brief: as §1
# [29] = target: Neu5Ac(a2-3)Gal6S(b1-4)GlcNAc
# Method in brief: as §1
# [30] = target: Neu5Ac(a2-3)Gal6S(b1-4)[Fuc(a1-3)]GlcNAc
# Method in brief: as §1
# Neu5Ac(a2-3)GalNAc = target: Neu5Ac(a2-3)GalNAc
# Method in brief: as §1
# [31] = target: Neu5Ac(a2-3)GalNAc(b1-4)GlcNAc
# Method in brief: as §1
# [32] = target: Neu5Ac(a2-3)[GalNAc(b1-4)]Gal(b1-4)Glc
# Method in brief: as §1
# [33] = target: Neu5Ac(a2-3)[GalNAc(b1-4)]Gal(b1-4)GlcNAc
# Method in brief: as §1
# [34] = target: Neu5Ac(a2-3)[GalNAc(b1-4)]Gal(b1-4)GlcNAc(b1-3)GalNAc
# Method in brief: as §1
# [35] = target: Neu5Ac(a2-3)[Neu5Ac(a2-6)]GalNAc
# Method in brief: as §1
# Neu5Ac(a2-6)Gal = target: Neu5Ac(a2-6)Gal
# Method in brief: as §1
binder,measurement,setting,value
B1257 (Bifidobacterium sp) (protein) MKKSIRLVAAIAALAMTAGISACGSSTNGNQAKSDVTAQDVETALTDTSKNVELTVWAYSAKQMEPTVKAFEKKYPHIKINFVNTGAAGDHFTKFQNVVQAQKDIPDVVQMGANKFQQFAVSGALLNFANDSIEKAWSKLYTKTAWAQVHYAGGLYGAPQDATPLANYVRKDILDEHNLQVPESWEDIYNEGIKLHKEDSNKYMGILGSDISFFTNLYRSVGARLWKVNSVDDVELTMNSGKAKEFTEFLQKCLKDGVLEGGTVFTDEFNRSINDGRYATFINENWMGNTYKEQNPSLKGKMVVAAPPSWKGQPYQSSSVGSMMSVSAACPKEKQAAALAFINWLDSDKDAIQSWQDTNNGNFFMAASVYQDDENQRNKKETDGYYANDDVNAVYFDSMDKVNTDWEYLPFMSQVEVVFNDVIVPQMNENGDLVGAMAKAQQELKTYAKDNGFKVTTDAD,glycan array binding signal (z-score),[1],-0.063
same,glycan array binding signal (z-score),[2],-0.096
same,glycan array binding signal (z-score),[3],-0.126
same,glycan array binding signal (z-score),[4],-0.111
same,glycan array binding signal (z-score),[5],-0.16
same,glycan array binding signal (z-score),[6],-0.172
same,glycan array binding signal (z-score),[7],0.154
same,glycan array binding signal (z-score),[8],-0.131
same,glycan array binding signal (z-score),[9],0.156
same,glycan array binding signal (z-score),[10],-0.094
same,glycan array binding signal (z-score),[11],-0.089
same,glycan array binding signal (z-score),[12],-0.087
same,glycan array binding signal (z-score),[13],-0.196
same,glycan array binding signal (z-score),[14],0.727
same,glycan array binding signal (z-score),[15],-0.1
same,glycan array binding signal (z-score),[16],-0.129
same,glycan array binding signal (z-score),[17],0.13
same,glycan array binding signal (z-score),[18],-0.127
same,glycan array binding signal (z-score),[19],-0.065
same,glycan array binding signal (z-score),[20],-0.193
same,glycan array binding signal (z-score),[21],-0.237
same,glycan array binding signal (z-score),[22],-0.165
same,glycan array binding signal (z-score),[23],0.008
same,glycan array binding signal (z-score),[24],0.013
same,glycan array binding signal (z-score),[25],0.158
same,glycan array binding signal (z-score),[26],0.14
same,glycan array binding signal (z-score),[27],0.061
same,glycan array binding signal (z-score),[28],-0.091
same,glycan array binding signal (z-score),[29],-0.197
same,glycan array binding signal (z-score),[30],-0.194
same,glycan array binding signal (z-score),Neu5Ac(a2-3)GalNAc,-0.249
same,glycan array binding signal (z-score),[31],-0.161
same,glycan array binding signal (z-score),[32],-0.082
same,glycan array binding signal (z-score),[33],-0.106
same,glycan array binding signal (z-score),[34],-0.074
same,glycan array binding signal (z-score),[35],-0.127
same,glycan array binding signal (z-score),Neu5Ac(a2-6)Gal,0.042
